153 variants from a collection of fitness landscapes (doi:10.1126/science.1257360) can be followed below.

The other results are listed elsewhere or left out. A value given as a limit tells only on which side of the number the result lay.

B1: PhoQ; a variant is named by its letters at X, in order, P23837 (parent)
chain: MKKLLRLFFPLSLRVRFLLATAAVVLVLSLAYGMVALIGYSVSFDKTTFRLLRGESNLFYTLAKWENNKLHVELPENIDKQSPTMTLIYDENGQLLWAQRDVPWLMKMIQPDWLKSNGFHEIEADVNDTSLLLSGDHSIQQQLQEVREDDDDAEMTHSVAVNVYPATSRMPKLTIVVVDTIPVELKSSYMVWSWFIYVLSANLLLVIPLLWVAAWWSLRPIEALAKEVRELEEHNRELLNPATTRELTSLVRNLNRLLKSERERYDKYRTTLTDLTHSLKTPLXXLQXXLRSLRSEKMSVSDAEPVMLEQISRISQQIGYYLHRASMRGGTLLSRELHPVAPLLDNLTSALNKVYQRKGVNISLDISPEISFVGEQNDFVEVMGNVLDNACKYCLEFVEISARQTDEHLYIVVEDDGPGIPLSKREVIFDRGQRVDTLRPGQGVGLAVAREITEQYEGKIVAGESMLGGARMEVIFGRQHSAPKDE

The variants in the assay derive from B1. The assay can be described thus: enrichment ratio after two sorts for PhoP signalling (ratio (wild type AVST 3.29)); higher = more functional. As to conditions: with PhoP (E. coli).
On to VRND, for which the enrichment ratio is not above 0.25. As for KAHY, the figure is not above 0.25; as for RDAA, not above 0.25; as for KSEM, not above 0.25. EFNH: the enrichment ratio is not above 0.25.

With GRST, the enrichment ratio is not above 0.25. On to DNDV, for which the enrichment ratio is not above 0.25. Regarding TPNH, the enrichment ratio is not above 0.25.

As to RRHP, the enrichment ratio was not above 0.25. Then IATQ, with not above 0.25; and MNVN, with not above 0.25; and LWAT, with not above 0.25. On to HPQK, for which the enrichment ratio is not above 0.25.

With QVGA, the enrichment ratio is not above 0.25. Regarding STGH, the enrichment ratio was 17.1. Take WKCN: the enrichment ratio was not above 0.25. On to KKQR, for which the enrichment ratio was not above 0.25. As to HKHW, the enrichment ratio was not above 0.25.

In the case of YRKD, the enrichment ratio is not above 0.25. As for EQPT, the enrichment ratio was not above 0.25. As for DNLM, the figure is not above 0.25; as for TSNV, 9.24; as for KQGW, not above 0.25. As for RWSL, the figure is not above 0.25; as for NNGR, not above 0.25. On to NYPR, for which the enrichment ratio was not above 0.25.

On to CWMS, for which the enrichment ratio was not above 0.25. On to LCHL, for which the enrichment ratio was 2.38. With DNGG, the enrichment ratio was not above 0.25.

For the variant AGGP, the enrichment ratio is not above 0.25. AQNG: the enrichment ratio worked out at 28.2. With GSKR, the enrichment ratio is not above 0.25.

On to FDIY, for which the enrichment ratio was not above 0.25. Then LRWV, with not above 0.25; and KDMH, with not above 0.25; and MKPF, with not above 0.25.

As to GWIV, the enrichment ratio was not above 0.25. On to YFIA, for which the enrichment ratio was not above 0.25. For QQKH, the enrichment ratio was not above 0.25. For the variant YYQM, the enrichment ratio is not above 0.25. As for GWGM, the enrichment ratio was not above 0.25. For FVEI, the enrichment ratio is not above 0.25. For QIPY, the enrichment ratio was not above 0.25.

As for YYMC, the enrichment ratio is not above 0.25. Take HRCT: the enrichment ratio is not above 0.25. Then DMAT, with not above 0.25. For the variant SENF, the enrichment ratio was not above 0.25. Then EYQN, with not above 0.25. As for MPPY, the figure is not above 0.25; as for DGPQ, not above 0.25.

With YWGS, the enrichment ratio is not above 0.25. As for ERDP, the figure is not above 0.25; as for YFPY, not above 0.25. Regarding VEEF, the enrichment ratio was not above 0.25. Turning to DAFE, the enrichment ratio was not above 0.25. Consider FKWW, for which the enrichment ratio is not above 0.25.

Take RRDF: the enrichment ratio is not above 0.25.

As to LPIC, the enrichment ratio is not above 0.25. Turning to PAFE, the enrichment ratio is not above 0.25. As for RTYP, the figure is not above 0.25. LHPH: the enrichment ratio was not above 0.25.

Consider VGKF, for which the enrichment ratio is not above 0.25. Then QDNQ, with not above 0.25; and NGFC, with not above 0.25. Turning to WGYQ, the enrichment ratio is not above 0.25. Then KTAE, with not above 0.25; and FSSE, with not above 0.25; and MNPP, with not above 0.25. As to FENS, the enrichment ratio was not above 0.25. For AETF, the enrichment ratio came to 9.37. Turning to PNWF, the enrichment ratio is not above 0.25. As to FPNQ, the enrichment ratio is not above 0.25. Take PLSR: the enrichment ratio was not above 0.25. With NFIF, the enrichment ratio is not above 0.25.

Take EFCK: the enrichment ratio was not above 0.25. Regarding NRQV, the enrichment ratio was not above 0.25. As for PYFS, the figure is not above 0.25; as for VSKC, not above 0.25; as for FRQF, not above 0.25. Turning to YVER, the enrichment ratio is not above 0.25.

On to TACN, for which the enrichment ratio was 13. On to EMTF, for which the enrichment ratio was not above 0.25. As for NNRA, the figure is not above 0.25.

Take KACT: the enrichment ratio was not above 0.25. Turning to SCIG, the enrichment ratio came out at 3.69. With DLVQ, the enrichment ratio is not above 0.25.

For MDLN, the enrichment ratio was not above 0.25.

Consider DSDP, for which the enrichment ratio is not above 0.25. Then YNIF, with not above 0.25; and MTGQ, with 6.54; and GLAP, with not above 0.25. For WAKW, the enrichment ratio is not above 0.25.

On to MNGK, for which the enrichment ratio is not above 0.25. As for SWTK, the enrichment ratio was not above 0.25. VTLL: the enrichment ratio amounted to 17.8. Regarding YCIY, the enrichment ratio was not above 0.25. Consider NTPW, for which the enrichment ratio was not above 0.25.

GVAF: the enrichment ratio was determined as 10.8. Consider MYWA, for which the enrichment ratio was not above 0.25. For YHPQ, the enrichment ratio was not above 0.25. DFSD: the enrichment ratio is not above 0.25.

Regarding HVHD, the enrichment ratio is not above 0.25. Turning to DLRV, the enrichment ratio was not above 0.25. NKID: the enrichment ratio is not above 0.25. With YNII, the enrichment ratio is not above 0.25. In the case of AAYQ, the enrichment ratio was not above 0.25.

As to KYFE, the enrichment ratio is not above 0.25. As for AKEH, the figure is not above 0.25; as for EKKF, not above 0.25. Consider TNCM, for which the enrichment ratio stood at 0.338. Take LPAC: the enrichment ratio is not above 0.25.

With TIDA, the enrichment ratio was not above 0.25. Then KFMQ, with not above 0.25; and FRQI, with not above 0.25; and FLAV, with not above 0.25. As for DTST, the figure is not above 0.25; as for VCGL, 0.55; as for ENCC, not above 0.25. On to DHPR, for which the enrichment ratio is not above 0.25. Regarding FNGL, the enrichment ratio was not above 0.25.

As for KRVW, the enrichment ratio is not above 0.25. As to PAES, the enrichment ratio is not above 0.25. In the case of HWIW, the enrichment ratio was not above 0.25.

On to VFLK, for which the enrichment ratio is not above 0.25.

For GFYD, the enrichment ratio is not above 0.25. As for FGQM, the enrichment ratio is not above 0.25. Consider RRRE, for which the enrichment ratio is not above 0.25. Consider LWKP, for which the enrichment ratio was not above 0.25. On to EEKP, for which the enrichment ratio is not above 0.25. For the variant VYCC, the enrichment ratio is not above 0.25. For the variant NGTA, the enrichment ratio is not above 0.25.

VYEG: the enrichment ratio is not above 0.25. As for PMYM, the figure is not above 0.25; as for TDLG, 5.5.

Take QRQM: the enrichment ratio was not above 0.25. Regarding EEVF, the enrichment ratio was not above 0.25. As for ICQG, the enrichment ratio is not above 0.25. Turning to VQEN, the enrichment ratio was not above 0.25.

As to SGVF, the enrichment ratio was determined as 8.16.

Turning to LMMH, the enrichment ratio is not above 0.25.

Turning to QDKS, the enrichment ratio was not above 0.25. Consider PASV, for which the enrichment ratio is not above 0.25. Regarding LKED, the enrichment ratio was not above 0.25. For SVYI, the enrichment ratio is not above 0.25. On to KENS, for which the enrichment ratio is not above 0.25.

On to GEFV, for which the enrichment ratio was not above 0.25. Turning to STMG, the enrichment ratio was 9.85. For the variant SFKR, the enrichment ratio worked out at 0.513.

On to NPYN, for which the enrichment ratio was not above 0.25. As for GFSY, the enrichment ratio was not above 0.25. As for NKYP, the figure is not above 0.25. For the variant FAEL, the enrichment ratio is not above 0.25. As to VMSP, the enrichment ratio was not above 0.25.
